The whole screen tested about 52,000 compounds, of which about 4,300 (8.3%) were called active. Cut-off read from the data, not from the text of the source: active = survival mostly below about 52% (no sharp cut-off); inactive = mostly above about 56%. The list shows a part of the results.

The results in this text go back to PubChem BioAssay AID463173 (ICCB-Longwood Screening Facility, Harvard Medical School, 2010).

The test system of the experiment is DeltatarO mutant. Kind of experiment: S. aureus survival, RN4220 and DeltatarO strains – OD600, teichoic acid synthesis inhibitors, primary screen (AID 463173). To be noted: S. aureus RN4220 wild type/DeltatarO growth, OD600, 18 h, hits give low values, screened at 18.75 µg/mL (by protocol).
Take `Cc1onc(-c2ccccc2Cl)c1C(=O)NC(C(=O)O)C(C)C` (stereo not given): the survival was inactive: 86%.
On to `CCN(C(=O)Cn1cnc2onc(-c3ccc(F)cc3)c2c1=O)c1ccc(OC)cc1`, for which the survival was inactive: 83%.
In the case of `Cc1oc2ncn(CC(C)C)c(=O)c2c1C(=O)NC(C)c1ccccc1` (stereo not given) it was inactive: 88%; in that of `CCOc1ccc(NC(=O)Cn2c(=O)c(CNc3ccc(CC)cc3)cc3cc4c(cc32)OCO4)cc1`, active: 47%.
For `CCN1CCN(c2ccc(N=Cc3ccc(N(C)C)cc3)cc2)CC1`, the survival was inactive: 101%.
In the case of `Cc1ccc(CNc2ncnc3onc(-c4ccc(F)cc4)c23)cc1` it was inactive: 86%; in that of `Cc1cc(C)c2nc(NC(=O)c3ccc(S(=O)(=O)N4CCc5ccccc54)cc3)sc2c1`, inactive: 83%; in that of `Cc1ccc(Cn2c(SCC(=O)C(C)(C)C)nc3ccsc3c2=O)cc1`, inactive: 77%.
For `O=C(O)CCCc1nc2ccccc2s1` the value was inactive: 75%.
In the case of `CC1=Nc2cc(C(=O)NCCc3ccccc3)ccc2Sc2c(C)ccc(C)c21` it was inactive: 66%.
In the case of `Cc1cccn2c(=O)c3cc(C(=O)NCc4cccnc4)c(=N)n(CCCO)c3nc12`, the survival is inactive: 82%.
For the molecule `CC(C)(C)c1ccc(C(=O)NC2(C(F)(F)F)C(=O)Nc3c2c(=O)[nH]c(=O)n3-c2ccccc2)cc1` (stereo not given), the survival is inactive: 88%.
For `O=C(NCc1ccccc1)c1nc(S(=O)(=O)Cc2ccccc2)ncc1Cl` the value was active: 18%; for `COC(=O)c1c(C)oc2ccc(N(C(=O)c3ccncc3)S(=O)(=O)c3c(C)cc(C)cc3C)cc12`, inactive: 175%; for `Cc1sc2ncn(CC(=O)N3CCN(c4ccc(Cl)cc4)CC3)c(=O)c2c1S(=O)(=O)N1CCN(c2ncccn2)CC1`, inactive: 81%.
Turning to `CC1CC(NC(=O)c2ncn[nH]2)CC(C)(C)C1` (stereo not given), the survival is inactive: 92%.
Regarding `CC1=C(C(N)=O)C(c2ccc(C)o2)C(C(N)=O)=C(C)N1`, the survival was inactive: 82%.
In the case of `COC(=O)c1cc2occc2n1Cc1nc(-c2cccc(Cl)c2)oc1C` it was inactive: 64%; in that of `COc1ccc(NC(=O)Cn2c(=O)n(-c3ccc(C)cc3)c(=O)c3c2cnn3C)cc1`, inactive: 147%; in that of `O=C(Nc1ccc2nc(SCC(=O)N3CCCC3)sc2c1)c1cccc(Cl)c1`, inactive: 52%.
For `CCOC(=O)c1c(C)[nH]c(C)c1S(=O)(=O)N(C)CC(=O)Nc1ccc(C)c(N(C)C)c1`, the survival was inactive: 101%.
Turning to `CCOC(=O)c1cc2c(=O)n3ccccc3nc2n(Cc2ccco2)c1=NC(=O)c1c(F)cccc1Cl`, the survival was inactive: 42%.
On to `CC(C)CCNC(=O)C1CCN(c2nc3ccc(Cl)cc3[nH]2)CC1`, for which the survival is inactive: 92%.
In the case of `COc1ccc(C)cc1NC(=O)c1ccc(=O)n(Cc2ccccc2)c1`, the survival was inactive: 97%.
In the case of `COc1ccc(-c2nsc(NC(=O)C(C)Oc3ccc(Cl)c(C)c3)n2)cc1` (stereo not given) it was active: 45%.
In the case of `COc1cccc(-n2c(=O)c3c(C)c(C)sc3n(CC(=O)NCc3ccccc3)c2=O)c1` it was inactive: 102%; in that of `COc1ccccc1NC(=O)C1=C(C)Nc2nnnn2C1c1cc(Br)c(O)c(OC)c1` (stereo not given), active: 55%; in that of `Cc1ccc(C)c(Cn2c(=O)cc(C)c3c(C)nn(-c4cccc(F)c4)c32)c1`, inactive: 77%.
In the case of `COc1ccc(/C=C/c2nc(C#N)c(NCCc3ccccc3)o2)cc1OC` it was inactive: 91%; in that of `COc1ccc(NC(=O)c2c(C)oc3ccc(O)c(CN4CCCCCC4)c23)cc1Cl`, inactive: 94%; in that of `COc1ccc(OC)c(CCNC(=O)c2cnn(-c3ccccc3Cl)c2C2CCN(C(=O)OC(C)(C)C)CC2)c1`, inactive: 88%.
For `Cc1cccc(C(=O)Nc2c(C(=O)NCc3ccc(Cl)cc3)sc3nc(C)cc(C)c23)c1`, the survival was inactive: 55%.
On to `COc1ccc(Nc2nc3c(S(=O)(=O)c4ccccc4)nnn3c3ccsc23)cc1OC`, for which the survival was inactive: 98%.
In the case of `COc1ccc(CCNC(=O)c2cn(C)c3ccc(S(=O)(=O)N(C)C4CCCCC4)cc3c2=O)cc1OC` it was inactive: 81%.
In the case of `CC(=O)N1c2ccc(S(=O)(=O)NCC3CCC(C(=O)Nc4cccc(C)c4C)CC3)cc2CC1C` (stereo not given) it was inactive: 83%; in that of `CCOCCCNC(=O)C(c1ccc(OC)cc1)N(Cc1ccc2c(c1)OCO2)C(=O)c1ccccc1O` (stereo not given), inactive: 62%; in that of `Cc1ccccc1C(=O)Nc1c(C)nc(Nc2ccccc2)nc1Nc1ccccc1`, inactive: 79%.
In the case of `Cc1ccc(NC(=O)Cn2nc(C)n3cccc3c2=O)c(C)c1` it was inactive: 96%; in that of `Cc1cccc(N2CCN(C(=O)c3cc4c(=O)n(C)c5ccccc5c4s3)CC2C)c1` (stereo not given), inactive: 61%; in that of `CCCN(CCC)CCNC(=O)c1ccc2c(c1)NC(=O)C(CS(=O)(=O)Cc1cccc(Br)c1)N2` (stereo not given), inactive: 124%.
Regarding `Cc1sc2ncn(CC(=O)N3CCN(c4cccc(Cl)c4)CC3)c(=O)c2c1S(=O)(=O)N1CCN(c2ncccn2)CC1`, the survival was inactive: 63%.
Take `COc1ccccc1N1CCN(S(=O)(=O)CCNC(=O)COc2ccc(C(C)C)cc2)CC1`: the survival is inactive: 86%.
On to `CCOc1ccccc1N1CC(c2nc3ccccc3n2Cc2c(C)cc(C)cc2C)CC1=O` (stereo not given), for which the survival was inactive: 92%.
For `COc1ccc(NC(=O)c2ccc3c(SCC(=O)O)c4c(nc3c2)CCC4)c(OC)c1` the value was inactive: 68%; for `COc1ccc(-c2nc(C)c(CCNC(=O)C(=O)Nc3cc(C)cc(C)c3)s2)cc1OC`, inactive: 80%; for `COc1ccc(-c2nc(SCc3cc(=O)c4cc(C)ccc4[nH]3)n[nH]2)cc1`, inactive: 80%.
Regarding `CC1(C)C=Cc2c(nc3ccccc3c2N)C1`, the survival was inactive: 65%.
In the case of `CC(C)(C)c1nc(CN2CCOCC2)cc(CN2CCOCC2)c1O` it was inactive: 79%; in that of `Cc1ccc(C)c(Cn2nc(-c3cc(C)ccc3C)ccc2=O)c1`, inactive: 44%; in that of `Cc1ccccc1OC(=O)CSc1nnc(-c2cccs2)o1`, inactive: 61%.
For the molecule `CCOC(=O)c1c(S(=O)(=O)N2CCCC(C(=O)N3CCN(c4ccccc4)CC3)C2)c(C)n(C)c1C` (stereo not given), the survival was inactive: 77%.
For `CCOc1ccc(S(=O)(=O)NCC(c2ccco2)S(=O)(=O)c2ccc(F)cc2)cc1` (stereo not given) the value was inactive: 92%; for `COc1cccc(N2CC(NC(=O)c3ccc(S(=O)(=O)N4CCCCC4)cc3)CC2=O)c1` (stereo not given), inactive: 92%; for `COc1ccc(-c2nc3ccccc3o2)cc1NC(=O)COc1ccc(C(C)(C)C)cc1`, active: 4%.
For `O=[N+]([O-])c1ccc(C(c2sc3nc(-c4ccco4)nn3c2O)N2CCN(c3cccc(Cl)c3)CC2)cc1` (stereo not given) the value was active: 47%.
`CCCCOC(=O)c1cccc(NC(=O)c2cc3ccccc3o2)c1`: the survival is active: 1%.
For the molecule `CCOc1ccc(C(=O)Nc2cccc(OCc3cc(=O)n4cc(C)sc4n3)c2)cc1`, the survival was inactive: 79%.
For `O=C(Nc1ccc(Cl)cc1F)c1cc(S(=O)(=O)NCc2ccc3c(c2)OCO3)ccc1F` the value was inactive: 77%.
In the case of `CCc1ccc2oc(C(=O)Nc3sc4c(c3C(=O)NC)CCCC4)cc(=O)c2c1` it was inactive: 55%; in that of `COc1cccc(CNCCSc2nnnn2C)c1OCc1ccccc1F`, inactive: 50%; in that of `CN(C)CCn1c2c(c(SCC(=O)Nc3ccc(F)cc3F)nc1=O)CCC2`, inactive: 71%.
`O=C(NCCc1ccccc1)c1ccc(CSc2nc3ccncc3n2Cc2ccc(F)cc2)cc1`: the survival is inactive: 69%.
In the case of `CCCCn1cc(S(=O)(=O)c2cccc(C)c2)c(=O)c2cc(F)c(N3CCOCC3)cc21` it was inactive: 83%; in that of `O=C(CN1C(=O)COc2ccc(S(=O)(=O)N3CCOCC3)cc21)N1CCN(c2ccc(F)cc2)CC1`, inactive: 99%; in that of `CC(Sc1nc(=O)cc(N)n1CCc1ccccc1)C(=O)Nc1ccccc1C#N` (stereo not given), inactive: 80%.
Consider `COc1ccc(OC)c(NC(=O)CN2C(=O)CCc3cc(S(=O)(=O)N4CCCCC4)ccc32)c1`, for which the survival is active: 32%.
For `O=C(NC1CCCCC1)c1ccc2c(c1)N(Cc1ccc(Cl)cc1)C(=O)c1ccccc1S2(=O)=O` the value was inactive: 84%; for `CCc1cccc(NC(=O)Cn2nc(-c3cc(C)ccc3C)ccc2=O)c1`, active: 34%; for `Cc1nnc(NCc2ccccc2)c2c1nnn2Cc1ccc(F)cc1`, inactive: 99%.
For `Cc1ccc(CN2C(=O)C3(c4ccccc42)N(c2cccc(C(F)(F)F)c2)C(=O)CS3(=O)=O)cc1` (stereo not given), the survival was inactive: 77%.
For the molecule `COc1ccccc1NC(=O)CSc1oc(-c2cccs2)nc1S(=O)(=O)c1ccccc1`, the survival is inactive: 54%.
For `O=c1cc(CSc2n[nH]c(-c3ccccc3)n2)[nH]c2ccccc12` the value was inactive: 129%; for `CC(Oc1ccccc1Cl)C(=O)N1CCN(CCc2ccccn2)CC1` (stereo not given), inactive: 108%; for `COc1cc(NC(=O)c2cc3c(=O)n(Cc4cccs4)ccc3nc2C)cc(OC)c1OC`, active: 0%.
In the case of `CCOC(=O)CN1CCN(c2ccc(F)cc2)CC1` it was inactive: 76%.
For `CCN1CCN(c2c(S(=O)(=O)c3ccc(C)c(C)c3)cnc3ccc(F)cc23)CC1` the value was inactive: 67%; for `O=c1c2cnn(-c3ccc(Cl)cc3)c2ncn1Cc1cccc(C(F)(F)F)c1`, inactive: 106%; for `Cc1nn(CC(=O)Nc2ccccc2F)c(=O)c2c(C)n(-c3ccc(Cl)cc3)nc12`, inactive: 102%.
`CCOc1ccc(-c2csc(/C(C#N)=C/c3ccc(Br)cc3)n2)cc1`: the survival is inactive: 55%.
In the case of `CCOc1ccc(C(NC(=O)c2ccco2)c2ccc(OC)c(OC)c2)cc1` (stereo not given), the survival is inactive: 75%.
For `Cc1ccc(-c2ccc(C#N)c(=O)n2CC(=O)N2CCC(C(N)=O)CC2)cc1` the value was inactive: 88%; for `COc1cccc(N2CCN(C(=O)c3cnn(-c4ccc(C)cc4C)c3C3CCN(C(=O)OC(C)(C)C)CC3)CC2)c1`, inactive: 101%; for `CC(=O)N1c2c(cc(Br)cc2S(=O)(=O)N2CCN(c3cccc(Cl)c3)CC2)CC1C` (stereo not given), inactive: 72%.
For `Cc1ccc(Cl)cc1NC(=O)Cn1c(=O)n(Cc2ccc(C(=O)NCc3ccc4c(c3)OCO4)cc2)c(=O)c2ccccc21` the value was inactive: 90%; for `CCN(Cc1ccccc1)C(=O)c1cc2c(s1)-c1c(C)cccc1OC2`, active: 55%.
